Data: PMC6919601, “Identification of Plasmodium dipeptidyl aminopeptidase allosteric inhibitors by high throughput screening” (PLoS ONE, 2019)
The campaign covered roughly 110,000 compounds. About 230 (0.21%) showed an effect of 50% or more. The list shows a part of the results.

molecular target: DPAP1 (Plasmodium falciparum, UniProt Q8IIJ9); test: primary screen, percent inhibition; read by cleavage of a fluorogenic dipeptide substrate; higher = more effect of the substance; set-up: species or system P. falciparum D10 trophozoite lysates; single well
Sequence (Q8IIJ9 whole entry, looked up): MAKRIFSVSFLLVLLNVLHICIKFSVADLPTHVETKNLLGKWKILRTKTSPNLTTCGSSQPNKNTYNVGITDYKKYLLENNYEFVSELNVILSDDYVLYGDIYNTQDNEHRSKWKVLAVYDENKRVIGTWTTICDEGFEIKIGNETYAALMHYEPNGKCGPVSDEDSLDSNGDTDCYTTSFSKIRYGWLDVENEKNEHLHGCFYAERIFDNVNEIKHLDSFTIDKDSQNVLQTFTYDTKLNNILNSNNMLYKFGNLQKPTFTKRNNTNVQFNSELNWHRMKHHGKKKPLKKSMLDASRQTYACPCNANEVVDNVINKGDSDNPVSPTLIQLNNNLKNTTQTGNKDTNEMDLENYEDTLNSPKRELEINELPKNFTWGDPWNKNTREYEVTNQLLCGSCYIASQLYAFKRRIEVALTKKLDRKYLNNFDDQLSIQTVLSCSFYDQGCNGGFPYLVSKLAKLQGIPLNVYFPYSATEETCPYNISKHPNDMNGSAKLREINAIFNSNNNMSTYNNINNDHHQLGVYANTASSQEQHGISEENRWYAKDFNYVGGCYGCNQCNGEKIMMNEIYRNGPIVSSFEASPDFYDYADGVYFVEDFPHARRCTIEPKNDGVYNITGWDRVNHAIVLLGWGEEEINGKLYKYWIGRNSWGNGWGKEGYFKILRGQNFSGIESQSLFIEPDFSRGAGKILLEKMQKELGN
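Note: 30 min substrate incubation versus DMSO and 10 µM JCP410 controls.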

| Structure (SMILES) | % Inhibition @ 10 uM [%] |
| --- | --- |
| COc1cc(C2c3c(oc4ccc(F)cc4c3=O)C(=O)N2c2nccs2)ccc1OCCC(C)C (stereo not shown) | 0.415 |
| O=C(CSc1nnnn1-c1ccccc1)Nc1ncc2c(n1)CC(c1ccco1)CC2=O (stereo not shown) | 4.94 |
| O=C(c1ccccc1)N1CCCOC1c1ccccc1 (stereo not shown) | 2.09 |
| Cc1nn(-c2ccccc2)c(-n2cccc2)c1C(=O)N1CCC(N2CCCCC2)CC1 | 1.8 |
| CCOCCCNC(=O)C1CCC(CNS(=O)(=O)c2cccc3nsnc23)CC1 (stereo not shown) | -0.465 |
| COc1ccc(C2CC(O)=C/C(=N/CC(C)C)C2)cc1 (stereo not shown) | -4.74 |
| CC1=CN2C(=N)/C(=C/c3cc(C)n(-c4cc(Cl)ccc4C)c3C)C(=O)N=C2S1 | 5.25 |
| C=CCn1/c(=N\C(=O)CC)n(C)c2ccccc21 | -7.81 |
| Cc1ccc2nc(C)cc(N3CCCC3)c2c1 | 0.121 |
| Cc1cc(C)nc(SCc2nnc(SCC(N)=O)n2C)n1 | 4.41 |
| CCOC(=O)C1=CN(Cc2ccc(F)cc2)C=C(C(=O)OCC)C1c1ccc(OC)c(O)c1 | -10.9 |
| CC1Cc2cc(C(=O)C3=C(O)C(=O)N(CCN4CCOCC4)C3c3ccncc3)ccc2O1 (stereo not shown) | -3.69 |
| CCCn1c2ccccc2c2cnn(CC(=O)Nc3ccccn3)c(=O)c21 | 0.244 |
| Cc1cccc(C)c1NC(=O)CSCCN | -5.74 |
| Cc1nnc2c(NC3CCCC3)nc3ccc(C(=O)c4ccccc4)cc3n12 | -2.5 |
| Cn1ncc(Cl)c1C(=O)N1CCN(C(=O)c2ccco2)CC1 | 5.87 |
| CC1(C)CC(=O)C2=C(C1)NC(=O)CC2c1ccccc1[N+](=O)[O-] (stereo not shown) | 4.52 |
| O=Cc1c(C(=O)O)[nH]c2ccccc12 | 3.54 |
| CCOc1ccc(NC(=O)C2(C)CC3C=CC2C3)cc1 (stereo not shown) | 4.89 |
| CC(c1nc2ccccc2[nH]1)N1CCCCC1 (stereo not shown) | 6.7 |
| Cc1ccc(C(=O)Nc2ccc(C)c(C)c2)cc1 | 2.46 |
| O=C(CCc1ccccc1)Nc1nnc(S(=O)(=O)NCc2ccccc2)s1 | -3.51 |
| Cc1sc(N)nc1-c1ccc(CC(C)C)cc1 | -3.94 |
| c1ccc(C(c2ccccc2)c2noc(CSc3nnnn3-c3ccccc3)n2)cc1 | -2.14 |
| COc1cc(CN2CCN(Cc3ccc(Br)cc3)CC2)cc(OC)c1OC | 1.78 |

| Structure (SMILES) | % Inhibition @ 10 uM [%] |
| --- | --- |
| CCCCNC(=O)NS(=O)(=O)c1cnccc1Sc1c(Cl)cccc1Cl | 0.643 |
| CC[N+]1(Cc2ccccc2)C2=C(CN(C)CC2)c2ccccc21 (stereo not shown) | 3.79 |
| Cc1ccc(C2=NC(=O)C(NC(=O)c3ccccc3)(C(F)(F)F)N2)cc1 (stereo not shown) | 0.413 |
| CCOc1cc(C)c(S(=O)(=O)NCCN2CCOCC2)cc1C | 1.88 |
| O=S(=O)(Cc1ccccc1)NCc1ccco1 | -2.35 |
| C(=N\Cc1cccnc1)/c1c2ccccc2cc2ccccc12 | -3.06 |
| Cc1cc2cc(CNS(C)(=O)=O)ccc2n1C | -1.89 |
| CC1=C(C(=O)OCc2ccccc2)C(c2cccnc2)C2=C(O)CC(C)(C)CC2=N1 (stereo not shown) | 3 |
| CCc1ccc(N2CC(C(=O)Nc3ccc(F)cc3)CC2=O)cc1 (stereo not shown) | 5.09 |
| O=C(NCc1ccco1)/C(=C/c1ccc2c(c1)OCO2)NC(=O)c1ccco1 | 23.4 |
| CN1C(=O)NC(NC(=O)C2CC2)(C(F)(F)F)C1=O (stereo not shown) | -5.2 |
| Cc1c(Cl)cccc1N(CC(=O)Nc1ccc2c(c1)OCO2)S(=O)(=O)c1ccccc1 | 5.03 |
| Cc1nn(C)c(C(=O)Nc2sc(C)c(C)c2C#N)c1Cl | 3.05 |
| COc1cc(C2CC(c3c(O)cc(C)oc3=O)=Nc3ccccc3S2)ccc1O (stereo not shown) | -0.415 |
| Cc1ccc(OCC(=O)Nc2ccc(C(=O)c3ccccc3)cc2)cc1 | 0.795 |
| CC(C)CN(CC(C)C)C(=O)c1cc(S(=O)(=O)N2CCOCC2)cn1C | 5 |
| c1ccc2c(c1)nnn2Cc1nnc2sc(-c3ccncc3)nn12 | 4.47 |
| CCOC(=O)Nc1ccc2c(c1)N(C(=O)CN1CCN(C)CC1)c1ccccc1CC2 | -8.03 |
| O=C(COc1ccc2ccccc2c1)Nc1ccc(S(=O)(=O)N2CCCCCC2)cc1 | -2.16 |
| COc1ccc(-c2c(C)nn3c(N4CCC5(CC4)OCCO5)cc(C)nc23)cc1OC | -1.89 |
| O=C(NCc1ccccc1)c1ccc(Br)c(S(=O)(=O)N2CCOCC2)c1 | 1.63 |
| CC/N=C1\SC(C(=O)NCCc2ccccc2)CC(=O)N1CC (stereo not shown) | 1.82 |
| O=C1CSC(c2ccccc2[N+](=O)[O-])N1CC12CC3CC(CC(C3)C1)C2 (stereo not shown) | -2.44 |
| CC(C)Oc1ccccc1/C=C/c1nc(O)c([N+](=O)[O-])c(O)n1 | 2.6 |
| CCCCNC(=O)CSc1nc2sc(C(=O)OCC)c(C)c2c(=O)n1Cc1ccco1 | -2.74 |

| Structure (SMILES) | % Inhibition @ 10 uM [%] |
| --- | --- |
| CC1CCc2c(sc(NC(=O)C3CC4CCC3C4)c2C#N)C1 (stereo not shown) | 2.78 |
| CCOc1ccc(C(=O)C2=C(O)C(=O)N(CCCN(C)C)C2c2ccc(OC)c(OC)c2)cc1C (stereo not shown) | -5.63 |
| Cc1ccc(/N=C2\S/C(=C/c3ccc(C(=O)O)cc3)C(=O)N2C)cc1 | -2.44 |
| O=C(Cn1ncc2c3ccccc3nc-2c1O)NCCc1ccsc1 | 0.244 |
| Cc1ccc(-n2cnc3cc(C(=O)NC4CCCC4)ccc32)c(C)c1 | -1.99 |
| CCOC(=O)N1CCN(C(=O)C2CCN(c3nc4c(C)cc(C)cc4s3)CC2)CC1 | -1.6 |
| O=C(/C(=C/c1ccco1)c1nc2ccccc2[nH]1)c1ccccc1 | -5.28 |
| CC(=O)N1CCC2(CC1)OC(=O)C(C)=C2C(=O)N1CCC(C)CC1 | -2.69 |
| Cc1ccc(NC(=O)Nc2cccc3ccccc23)cc1Cl | -4.01 |
| CC1(c2ccccc2)COC2(OC1)C(=O)N(CN1CCCCC1)c1ccccc12 (stereo not shown) | -3.19 |
| O=C(O)/C(O)=C/C(=O)c1ccc(Cl)cc1 | 3.24 |
| Cc1ccc(NC(=O)CN(Cc2ccccc2)S(=O)(=O)c2ccccc2)c(C)c1 | -4.01 |
| Cc1cc(C(=O)NC(C)C)c2c(C)nn(-c3ccccc3Cl)c2n1 | -1.3 |
| Cc1ccc(S(=O)(=O)/N=C(\N)c2ccc(F)cc2)cc1 | -0.836 |
| Cc1ccc2sc(-c3ccc(NC(=O)C4CC4)cc3)nc2c1 | 4.75 |
| O=C(CCc1nnc2n(Cc3ccccc3)c(=O)c3ccccc3n12)NCc1ccc2c(c1)OCO2 | -0.692 |
| COc1ccc(C2CC(C(F)(F)F)n3ncc(C(N)=O)c3N2)cc1 (stereo not shown) | 2.7 |
| COc1cc(CNc2ccc3[nH]c(O)nc3c2)cc(Cl)c1OCC(=O)NC(C)(C)C | -1.82 |
| CNC(=O)Cn1ncc2c3ccccc3n(C)c2c1=O | -1.92 |
| COC(=O)c1[nH]c2ccccc2c1S(=O)c1ccccc1 (stereo not shown) | -5.37 |
| Cc1noc2ncnc(N(C)Cc3ccccc3)c12 | -7.73 |
| NC(=O)c1c(NC(=O)c2ccc(Br)o2)sc2c1CCCCC2 | 5.42 |
| Clc1ccc2oc(-c3ccccc3)c/c(=N\Cc3ccco3)c2c1 | -4.85 |
| O=C(CSc1c2c(nc3ccccc13)CCCC2)NCc1ccc(F)cc1 | -5.1 |
| CCCNC(=O)N1CCN(c2nc3ccccc3s2)CC1 | -0.551 |

| Structure (SMILES) | % Inhibition @ 10 uM [%] |
| --- | --- |
| O=C(CCCn1sc2ccccc2c1=O)NC1CCN(Cc2ccccc2)CC1 | -6.59 |
| CCCCn1c(Oc2ccc(F)cc2)nc2c1c(=O)n(C)c(=O)n2C | 1.19 |
| CCOC(=O)N1CCN(C(=O)CSc2nnc(-c3ccc(C)c(C)c3)o2)CC1 | 1.86 |
| Cc1ccc(-c2nn(C)c(=O)c3ccccc23)cc1CNC(=O)c1cccs1 | 5.44 |
| CCOc1ccccc1C1C(C(=O)OC)=CN(Cc2ccc(OC)c(OC)c2)C=C1C(=O)OC | 3.45 |
| CNCC(O)c1ccc2cc[nH]c2c1 (stereo not shown) | 4.93 |
| CCOc1ccc(C2(O)CSC3=C(C#N)C(c4cccc(Cl)c4)CC(=O)N32)cc1 (stereo not shown) | 1.64 |
| CCOC(=O)c1[nH]c2c([N+](=O)[O-])cccc2c1CC | 2.65 |
| O=C(O)C1C2CCC(C2)C1C(=O)Nc1ccc(Cl)c(Cl)c1 (stereo not shown) | -0.0938 |
| Cn1c2ccccc2n2nc(-c3ccccc3)nc12 | 8.75 |
| CCC(C)(C)c1ccc(OCC(=O)Nc2nccs2)cc1 | -5.58 |
| COCCCn1c(=O)c2sccc2n2c(CCCC(=O)N3CCN(c4ccccn4)CC3)nnc12 | -1.35 |
| CC1CC(C)CN(C(=O)Cn2cnc3onc(-c4ccc(F)cc4)c3c2=O)C1 (stereo not shown) | -4.55 |
| c1ccc2oc(NC3=NCN(CC4CCCO4)CN3)nc2c1 (stereo not shown) | 0.032 |
| COc1ccc(C(=O)Nc2ccc(Cl)cc2C(=O)N2CCCC(C)C2)cc1 (stereo not shown) | -3.1 |
| Cc1cc2c(cc1C)C(c1cc3c(cc1Cl)OCO3)CC(=O)N2 (stereo not shown) | -1.02 |
| COc1cccc(C(=O)Nc2c(-c3cccs3)nc3ccccn23)c1OC | 0.813 |
| CCN1CCN(C(=O)CNS(=O)(=O)c2ccc(Br)s2)CC1 | -0.601 |
| Oc1ccc(CN2CCN(c3cccc(Cl)c3)CC2)cc1 | -1.92 |
| Cn1c2ccccc2c2cnn(CC(=O)N3CCOCC3)c(=O)c21 | -5.49 |
| COc1cc(C2C(C(=O)c3ccc(C)cc3)=C(O)C(=O)N2c2cccnc2)ccc1O (stereo not shown) | 0.408 |
| COc1ccc(CN2CCSCC2)cc1Br | -5.68 |
| Brc1ccc(NCc2ccccn2)cc1 | -2.35 |
| O=C(Nc1ccc(Cl)cn1)C1CCCN(c2ncnc3c2nc2n3CCCCC2)C1 (stereo not shown) | 0.00353 |
| COc1ccc(CC(=O)N2CCc3cc(OC)c(OC)cc3C2COc2ccccc2OC)cc1 (stereo not shown) | 0.426 |
